This is one part of the list. Many values rest on one well or one pass, so single values are uncertain.
Assays:
Experiment in all cases: cell count relative to DMSO control; melanoma cells; higher = more viable cells
Settings in all cases: library dose: low library concentration; 72 h; first compound 0.4 µM
[1] = test system: WM115
[2] = test system: WM1716
[3] = test system: WM1745
[4] = test system: WM3526
[5] = test system: WM3619
[6] = test system: WM451Lu
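Further: cell number obtained by counting DAPI-stained nuclei in high-throughput microscope images with image analysis software, screen run in 1,536-well plates.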

## Cn1sc(=O)n(Cc2ccccc2)c1=O + C=C(c1ccc(C(=O)O)cc1)c1cc2c(cc1C)C(C)(C)CCC2(C)C [Bexarotene] (partner dose 2 µM)
[1]
  cell count: 100%
[2]
  cell count: 97.6%
[3]
  cell count: 108%
[4]
  cell count: 98.8%
[5]
  cell count: 96%
[6]
  cell count: 89.5%

## CCCCCCCCCCCCCCCCCCOP(=O)([O-])OC1CC[N+](C)(C)CC1 [Perifosine] + Cn1cnc2c(F)c(Nc3ccc(Br)cc3Cl)c(C(=O)NOCCO)cc21 [selumetinib] (partner dose 0.015 µM)
[1]
  cell count: 99.6%
[2]
  cell count: 105%
[3]
  cell count: 99%
[4]
  cell count: 87.9%
[5]
  cell count: 89%
[6]
  cell count: 86.1%

## C[C@@H](N)c1ccc(C(=O)Nc2ccnc3[nH]ccc23)cc1 + COc1ccc(-c2ccc3c(N4CCOCC4)nc(N4C[C@@H](C)O[C@@H](C)C4)nc3n2)cc1CO [KU0063794] (partner dose 0.02 µM)
[1]
  cell count: 110%
[2]
  cell count: 53.2%
[3]
  cell count: 70.4%
[4]
  cell count: 101%
[5]
  cell count: 89.4%
[6]
  cell count: 94.7%

## CCCCCCCCCCCCCCCCCCOP(=O)([O-])OC1CC[N+](C)(C)CC1 [Perifosine] + COc1cc2c(Oc3ccc4[nH]c(C)cc4c3F)ncnc2cc1OCCCN1CCCC1 [cediranib] (partner dose 0.4 µM)
[1]
  cell count: 114%
[2]
  cell count: 128%
[3]
  cell count: 104%
[4]
  cell count: 90.1%
[5]
  cell count: 119%
[6]
  cell count: 106%

## CCCCCCCCCCCCCCCCCCOP(=O)([O-])OC1CC[N+](C)(C)CC1 [Perifosine] + Cn1c(=O)n(-c2ccc(C(C)(C)C#N)cc2)c2c3cc(-c4cnc5ccccc5c4)ccc3ncc21 [NVP-BEZ235] (partner dose 0.004 µM)
[1]
  cell count: 92.9%
[2]
  cell count: 98.5%
[3]
  cell count: 106%
[4]
  cell count: 91.9%
[5]
  cell count: 83%
[6]
  cell count: 123%

## CCCCCCCCCCCCCCCCCCOP(=O)([O-])OC1CC[N+](C)(C)CC1 [Perifosine] + CCN(CC)CCNC(=O)c1c(C)[nH]c(/C=C2\C(=O)Nc3ccc(F)cc32)c1C [sunitinib] (partner dose 0.4 µM)
[1]
  cell count: 113%
[2]
  cell count: 131%
[3]
  cell count: 94.7%
[4]
  cell count: 112%
[5]
  cell count: 121%
[6]
  cell count: 94.2%

## Cn1sc(=O)n(Cc2ccccc2)c1=O + O=C(O)[C@@H]1[O][Sb](=[O])([O][Sb]2(=[O])[O][C@H]([C@H](O)CO)[C@H](O)[C@H](C(=O)O)[O]2)[O][C@H]([C@H](O)CO)[C@@H]1O [stibogluconate] (partner dose 2 µM)
[1]
  cell count: 96.1%
[2]
  cell count: 104%
[3]
  cell count: 104%
[4]
  cell count: 102%
[5]
  cell count: 88.4%
[6]
  cell count: 95.3%

## CCCCCCCCCCCCCCCCCCOP(=O)([O-])OC1CC[N+](C)(C)CC1 [Perifosine] + CC(C)(C)c1cnc(CSc2cnc(NC(=O)C3CCNCC3)s2)o1 [SNS-032] (partner dose 0.01 µM)
[1]
  cell count: 82.4%
[2]
  cell count: 79.7%
[3]
  cell count: 70.8%
[4]
  cell count: 94.5%
[5]
  cell count: 84%
[6]
  cell count: 121%

## Cn1sc(=O)n(Cc2ccccc2)c1=O + C=CCNC1=C2C[C@@H](C)C[C@H](OC)[C@H](O)[C@@H](C)/C=C(\C)[C@H](OC(N)=O)[C@@H](OC)/C=C\C=C(/C)C(=O)NC(=CC1=O)C2=O [Tanespimycin] (partner dose 0.002 µM)
[1]
  cell count: 96.7%
[2]
  cell count: 82.7%
[3]
  cell count: 90.6%
[4]
  cell count: 81.1%
[5]
  cell count: 97.3%
[6]
  cell count: 96.3%

## Cn1sc(=O)n(Cc2ccccc2)c1=O + CCc1ccc(CCOc2ccc(CC3SC(=O)NC3=O)cc2)nc1 [pioglitazone] (partner dose 2 µM)
[1]
  cell count: 99.3%
[2]
  cell count: 102%
[3]
  cell count: 84.5%
[4]
  cell count: 92.7%
[5]
  cell count: 85.8%
[6]
  cell count: 84.6%

## Cn1sc(=O)n(Cc2ccccc2)c1=O + CCCCCCCCc1ccc(CCC(N)(CO)CO)cc1 [fingolimod] (partner dose 2 µM)
[1]
  cell count: 99.4%
[2]
  cell count: 72.3%
[3]
  cell count: 94.3%
[4]
  cell count: 91.3%
[5]
  cell count: 91.6%
[6]
  cell count: 103%

## Cn1sc(=O)n(Cc2ccccc2)c1=O + CN(c1ncccc1CNc1nc(Nc2ccc3c(c2)CC(=O)N3)ncc1C(F)(F)F)S(C)(=O)=O [PF562271] (partner dose 0.08 µM)
[1]
  cell count: 80.9%
[2]
  cell count: 73.1%
[3]
  cell count: 87.6%
[4]
  cell count: 104%
[5]
  cell count: 92.9%
[6]
  cell count: 94.2%

## C[C@@H](N)c1ccc(C(=O)Nc2ccnc3[nH]ccc23)cc1 + CS(=O)(=O)c1ccc(C(=O)Nc2ccc(Cl)c(-c3ccccn3)c2)c(Cl)c1 [vismodegib] (partner dose 1 µM)
[1]
  cell count: 118%
[2]
  cell count: 69.4%
[3]
  cell count: 76%
[4]
  cell count: 115%
[5]
  cell count: 123%
[6]
  cell count: 88%

## CCCCCCCCCCCCCCCCCCOP(=O)([O-])OC1CC[N+](C)(C)CC1 [Perifosine] + COc1cc(Nc2ncc(F)c(Nc3ccc4c(n3)NC(=O)C(C)(C)O4)n2)cc(OC)c1OC [Tamatinib] (partner dose 0.4 µM)
[1]
  cell count: 91.9%
[2]
  cell count: 49.1%
[3]
  cell count: 60.5%
[4]
  cell count: 67.7%
[5]
  cell count: 100%
[6]
  cell count: 52.8%

## Cn1sc(=O)n(Cc2ccccc2)c1=O + CCN(CC)CCNC(=O)c1c(C)[nH]c(/C=C2\C(=O)Nc3ccc(F)cc32)c1C [sunitinib] (partner dose 0.4 µM)
[1]
  cell count: 107%
[2]
  cell count: 122%
[3]
  cell count: 78.7%
[4]
  cell count: 104%
[5]
  cell count: 150%
[6]
  cell count: 98.9%

## CCCCCCCCCCCCCCCCCCOP(=O)([O-])OC1CC[N+](C)(C)CC1 [Perifosine] + CC1(C)CCC(c2ccc(Cl)cc2)=C(CN2CCN(c3ccc(C(=O)NS(=O)(=O)c4ccc(N[C@H](CCN5CCOCC5)CSc5ccccc5)c(S(=O)(=O)C(F)(F)F)c4)cc3)CC2)C1 [ABT263] (partner dose 0.4 µM)
[1]
  cell count: 71.9%
[2]
  cell count: 64.9%
[3]
  cell count: 9.64%
[4]
  cell count: 109%
[5]
  cell count: 88.3%
[6]
  cell count: 77.5%

## CCCCCCCCCCCCCCCCCCOP(=O)([O-])OC1CC[N+](C)(C)CC1 [Perifosine] + CS(=O)(=O)CCNCc1ccc(-c2ccc3ncnc(Nc4ccc(OCc5cccc(F)c5)c(Cl)c4)c3c2)o1 [lapatinib] (partner dose 0.8 µM)
[1]
  cell count: 89%
[2]
  cell count: 98.7%
[3]
  cell count: 88.5%
[4]
  cell count: 127%
[5]
  cell count: 98.7%
[6]
  cell count: 92.2%

## C[C@@H](N)c1ccc(C(=O)Nc2ccnc3[nH]ccc23)cc1 + O=C1NC(=O)/C(=C/c2ccc(-c3ccc(F)cc3O)o2)S1 [AS252424] (partner dose 1 µM)
[1]
  cell count: 109%
[2]
  cell count: 61%
[3]
  cell count: 82.7%
[4]
  cell count: 92.9%
[5]
  cell count: 95.7%
[6]
  cell count: 100%

## CCCCCCCCCCCCCCCCCCOP(=O)([O-])OC1CC[N+](C)(C)CC1 [Perifosine] + Cc1cc([N+](=O)[O-])ccc1NS(=O)(=O)c1cc(Cl)ccc1Cl [FH535] (partner dose 1 µM)
[1]
  cell count: 84.8%
[2]
  cell count: 82%
[3]
  cell count: 83.2%
[4]
  cell count: 97.4%
[5]
  cell count: 85.1%
[6]
  cell count: 93.3%

## C[C@@H](N)c1ccc(C(=O)Nc2ccnc3[nH]ccc23)cc1 + NC(=O)Nc1cc(-c2cccc(F)c2)sc1C(=O)N[C@H]1CCCNC1 [AZD7762] (partner dose 0.02 µM)
[1]
  cell count: 109%
[2]
  cell count: 62.4%
[3]
  cell count: 74.3%
[4]
  cell count: 106%
[5]
  cell count: 38.6%
[6]
  cell count: 96.8%

## CCCCCCCCCCCCCCCCCCOP(=O)([O-])OC1CC[N+](C)(C)CC1 [Perifosine] + O=C(CCCCCCC(=O)Nc1ccccc1)NO [vorinostat] (partner dose 0.08 µM)
[1]
  cell count: 91.7%
[2]
  cell count: 99%
[3]
  cell count: 79.6%
[4]
  cell count: 95.1%
[5]
  cell count: 92.2%
[6]
  cell count: 70.4%

## CCCCCCCCCCCCCCCCCCOP(=O)([O-])OC1CC[N+](C)(C)CC1 [Perifosine] + Cc1ccc(Nc2nccc(N(C)c3ccc4c(C)n(C)nc4c3)n2)cc1S(N)(=O)=O [Pazopanib] (partner dose 0.4 µM)
[1]
  cell count: 93.6%
[2]
  cell count: 89.4%
[3]
  cell count: 97.5%
[4]
  cell count: 88.6%
[5]
  cell count: 80.9%
[6]
  cell count: 90.6%

## CCCCCCCCCCCCCCCCCCOP(=O)([O-])OC1CC[N+](C)(C)CC1 [Perifosine] + O=C(O)C(=O)Nc1sc2c(c1C(=O)O)CCNC2 [TCS401] (partner dose 1.66667 µM)
[1]
  cell count: 98.3%
[2]
  cell count: 92.7%
[3]
  cell count: 76.3%
[4]
  cell count: 100%
[5]
  cell count: 81.5%
[6]
  cell count: 86.4%

## CCCCCCCCCCCCCCCCCCOP(=O)([O-])OC1CC[N+](C)(C)CC1 [Perifosine] + CN(NC(=O)CC(=O)NN(C)C(=S)c1ccccc1)C(=S)c1ccccc1 [STA4783] (partner dose 0.006 µM)
[1]
  cell count: 87.3%
[2]
  cell count: 73.1%
[3]
  cell count: 69.7%
[4]
  cell count: 91%
[5]
  cell count: 93.7%
[6]
  cell count: 119%

## Cn1sc(=O)n(Cc2ccccc2)c1=O + COc1cc(N2CCC(N3CCN(C)CC3)CC2)ccc1Nc1ncc(Cl)c(Nc2ccccc2S(=O)(=O)C(C)C)n1 [NVP-TAE684] (partner dose 0.08 µM)
[1]
  cell count: 85.8%
[2]
  cell count: 115%
[3]
  cell count: 97%
[4]
  cell count: 104%
[5]
  cell count: 115%
[6]
  cell count: 121%

## C[C@@H](N)c1ccc(C(=O)Nc2ccnc3[nH]ccc23)cc1 + CC(C)C[C@H](NC(=O)[C@H](Cc1ccccc1)NC(=O)c1cnccn1)B(O)O [Bortezomib] (partner dose 0.001 µM)
[1]
  cell count: 115%
[2]
  cell count: 41.6%
[3]
  cell count: 65.3%
[4]
  cell count: 111%
[5]
  cell count: 27.9%
[6]
  cell count: 96.2%

## Cn1sc(=O)n(Cc2ccccc2)c1=O + C[C@]1(O)C[C@@H](c2nc(-c3ccc4ccc(-c5ccccc5)nc4c3)c3c(N)nccn32)C1 [OSI906] (partner dose 0.4 µM)
[1]
  cell count: 101%
[2]
  cell count: 97.8%
[3]
  cell count: 73.4%
[4]
  cell count: 110%
[5]
  cell count: 94.5%
[6]
  cell count: 83.4%

## C[C@@H](N)c1ccc(C(=O)Nc2ccnc3[nH]ccc23)cc1 + COc1cc2ncnc(Nc3ccc(Oc4ccccc4)cc3)c2cc1OC [SrcI1] (partner dose 2 µM)
[1]
  cell count: 114%
[2]
  cell count: 73.4%
[3]
  cell count: 79.4%
[4]
  cell count: 106%
[5]
  cell count: 120%
[6]
  cell count: 70.1%

## Cn1sc(=O)n(Cc2ccccc2)c1=O + CC(C)CCN1c2nc(Nc3cc(F)c(O)c(F)c3)ncc2N(C)C(=O)C1C [BID1870] (partner dose 0.2 µM)
[1]
  cell count: 98.8%
[2]
  cell count: 96.9%
[3]
  cell count: 110%
[4]
  cell count: 91.3%
[5]
  cell count: 100%
[6]
  cell count: 96.8%

Source: the supplement of paper PMC4604168 (melanoma cell lines)
